Relative growth data for 58 compounds are collected here from the supplement of paper PMC9446081.

SMILES strings stand for the structures. About 220 (0.56%) of roughly 39,000 compounds showed activity. This is one part of the list.
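Note: static incubation at 37 °C against the wild-type strain, values averaged over two biological replicates.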

In this experiment the test system is Escherichia coli K-12 BW25113. Put plainly: relative growth (OD600 normalised to plate interquartile mean) (fraction); higher = less growth inhibition, active = 0.2 or less. The note with it: 50 µM; LB; incubation time: overnight (16-24 h).
On to `CC(C)CCN1CCn2c(CO)nnc2C1`, for which the relative growth was inactive: 1.02.

`C[C@H](CO)N1C[C@H](C)[C@H](CN(C)Cc2ccc(Cl)c(Cl)c2)Oc2ccc(NS(=O)(=O)c3ccc(Cl)cc3)cc2CC1=O`: the relative growth was inactive: 1.01.

With `C[C@@H]1CN([C@@H](C)CO)C(=O)Cc2cc(NC(=O)Nc3ccc(C(F)(F)F)cc3)ccc2O[C@@H]1CN(C)C(=O)Nc1ccccc1`, the relative growth is inactive: 1.04.

Consider `C[C@@H]1CCCCO[C@H](CN(C)Cc2ccncc2)[C@@H](C)CN([C@H](C)CO)C(=O)c2cc(NC(=O)Nc3ccc(C(F)(F)F)cc3)ccc2O1`, for which the relative growth is inactive: 1.07.

On to `CC(C)NC(=O)N(C)C[C@@H]1Oc2ccc(NS(=O)(=O)c3cccs3)cc2CC(=O)N([C@@H](C)CO)C[C@@H]1C`, for which the relative growth was inactive: 0.973.

`CCO[C@H]1OC(C(=O)N2CCOCC2)=C[C@@H](c2coc3ccccc3c2=O)[C@@H]1CCCOC(=O)NCCCCCC(=O)NO`: the relative growth is inactive: 0.988.

As to `CCCC(=O)Nc1ccc2c(c1)C(=O)N(C)[C@@H]1CC[C@H](CC(=O)NCCN3CCCCC3)O[C@@H]1CO2`, the relative growth was inactive: 1.01.

Regarding `C[C@@H]1CN([C@@H](C)CO)C(=O)c2cc(NC(=O)CCN3CCOCC3)ccc2O[C@@H]1CN(C)S(=O)(=O)c1ccc(F)cc1`, the relative growth was inactive: 0.991.

Regarding `C[C@@H]1CN([C@@H](C)CO)S(=O)(=O)c2ccc(C#Cc3cccnc3)cc2O[C@H]1CN(C)CC1CCCC1`, the relative growth was inactive: 1.03.

In the case of `C[C@H](CO)N1C[C@H](C)[C@@H](CN(C)C(=O)CCC(F)(F)F)OCCCC[C@H](C)Oc2ccc(NC(=O)CCC(F)(F)F)cc2C1=O`, the relative growth was inactive: 1.

As to `C[C@H](CO)N1C[C@H](C)[C@@H](CN(C)C(=O)C2CCOCC2)Oc2cc(C#Cc3ccncc3)ccc2S1(=O)=O`, the relative growth is inactive: 0.964.

In the case of `C[C@@H]1CN([C@H](C)CO)C(=O)c2cc(NC(=O)Cn3cnnn3)ccc2O[C@H]1CN(C)S(=O)(=O)c1cn(C)cn1`, the relative growth is inactive: 0.996.

`COc1ccc([C@@H]([C@H](Cc2ccccc2)OC(C)=O)N2C[C@@H](CC(=O)N(C)C)[C@@H]3C(=NO[C@H]3c3ccccc3)[C@@H]2Cc2ccccc2)cc1`: the relative growth was inactive: 1.02.

Regarding `COc1ccc(C#Cc2ccc3c(c2)[C@]2(C(=O)N3)[C@H](c3ccc(O)cc3)N3[C@H](c4ccccc4)[C@H](c4ccccc4)OC(=O)[C@H]3[C@@H]2C(=O)O)cc1`, the relative growth was inactive: 1.01.

With `CCC(=O)n1ccc(C(=O)N2CCOCC2)n1`, the relative growth was inactive: 1.05.

Consider `Cc1cccc(O)c1`, for which the relative growth is inactive: 0.977.

For `COc1ccc(S(=O)(=O)Nc2ccc3c(c2)C(=O)N([C@H](C)CO)C[C@H](C)[C@H](CN(C)C(=O)Nc2c(C)noc2C)OCCCC[C@@H](C)O3)cc1`, the relative growth is inactive: 0.973.

Consider `C[C@H](CO)N1C[C@H](C)[C@H](CN(C)C(=O)Nc2ccc(C(F)(F)F)cc2)Oc2ccc(NC(=O)Cn3cnnn3)cc2CC1=O`, for which the relative growth was inactive: 0.998.

Regarding `C[C@H](CO)N1C[C@H](C)[C@@H](CN(C)S(=O)(=O)c2cccs2)Oc2c(NC(=O)C3CCOCC3)cccc2C1=O`, the relative growth is inactive: 1.

Regarding `CC(=O)ON1C(C)(C)C=C(C(N)=O)C1(C)C`, the relative growth is inactive: 1.01.

For `C[C@@H]1CCCCO[C@@H](CN(C)C(=O)Nc2ccc(C(F)(F)F)cc2)[C@@H](C)CN([C@H](C)CO)C(=O)c2cc(NC(=O)c3ccccc3)ccc2O1`, the relative growth is inactive: 1.02.

Consider `C[C@H](CO)N1C[C@H](C)[C@@H](CN(C)Cc2ccc(Oc3ccccc3)cc2)Oc2ccc(NC(=O)Cc3ccccc3)cc2C1=O`, for which the relative growth is inactive: 1.04.

As for `C[C@H]1CN([C@@H](C)CO)C(=O)Cc2cc(NC(=O)CCN3CCOCC3)ccc2O[C@@H]1CN(C)S(=O)(=O)c1cccs1`, the relative growth is inactive: 0.981.

For the compound `Nc1c(C(=O)O)cnc2nc(N3CCOCC3)nn12`, the relative growth was inactive: 0.964.

For the compound `COc1ccc(S(=O)(=O)N(C)C[C@@H]2OCCCC[C@H](C)Oc3ccc(NC(=O)Nc4ccc(C(F)(F)F)cc4)cc3C(=O)N([C@H](C)CO)C[C@@H]2C)cc1`, the relative growth is inactive: 1.05.

With `COc1ccc(NC(=O)N(C)C[C@H]2Oc3ccc(NC(=O)C4CC4)cc3C(=O)N([C@@H](C)CO)C[C@@H]2C)cc1`, the relative growth was inactive: 1.01.

As to `C[C@@H]1CCCCO[C@@H](CN(C)C(=O)NC2CCCCC2)[C@H](C)CN([C@H](C)CO)C(=O)c2cc(NS(=O)(=O)c3ccccc3)ccc2O1`, the relative growth was inactive: 1.02.

Take `C[C@H]1CN([C@@H](C)CO)S(=O)(=O)c2ccc(C3=CCCC3)cc2O[C@H]1CN(C)C(=O)C1CCOCC1`: the relative growth was inactive: 1.01.

Turning to `Cc1ccc(S(=O)(=O)Nc2ccc3c(c2)C(=O)N([C@H](C)CO)C[C@@H](C)[C@@H](CN(C)S(=O)(=O)c2ccc(C)cc2)OCCCC[C@@H](C)O3)cc1`, the relative growth is inactive: 1.02.

For the compound `C[C@]12CC3CC(N)(C1)C[C@@](C)(C3)C2`, the relative growth is inactive: 1.05.

For `CNC[C@H]1OCCCC[C@@H](C)Oc2ccc(NC(=O)c3ccncc3)cc2C(=O)N([C@H](C)CO)C[C@@H]1C`, the relative growth was inactive: 1.02.

Regarding `N=C(N)SCCc1cnc[nH]1`, the relative growth was inactive: 1.03.

As for `Cc1noc(C)c1S(=O)(=O)Nc1ccc2c(c1)C(=O)N([C@@H](C)CO)C[C@H](C)[C@@H](CN(C)C(=O)Nc1ccc(C(F)(F)F)cc1)OCCCC[C@H](C)O2`, the relative growth is inactive: 1.02.

As for `CCCNC(=O)[C@@H]1c2ccccc2C(=O)N(Cc2cc(F)cc(C(F)(F)F)c2)[C@H]1c1ccc(CO)cc1`, the relative growth is inactive: 1.

For the compound `C[C@@H]1CCCCO[C@@H](CN(C)S(=O)(=O)c2cccs2)[C@@H](C)CN([C@@H](C)CO)C(=O)c2cc(NC(=O)Nc3ccc(C(F)(F)F)cc3)ccc2O1`, the relative growth was inactive: 0.986.

Take `C[C@@H]1CCCCO[C@H](CN(C)C(=O)C2CCCCC2)[C@H](C)CN([C@H](C)CO)C(=O)c2cc(NC(=O)Nc3ccccc3)ccc2O1`: the relative growth is inactive: 1.03.

As for `Cc1noc(C)c1S(=O)(=O)N(C)C[C@@H]1Oc2ccc(NS(=O)(=O)c3ccc(Cl)cc3)cc2C(=O)N([C@@H](C)CO)C[C@@H]1C`, the relative growth is inactive: 0.993.

For `C=CC[C@@H](CC(=O)N[C@@H](CO)Cc1ccccc1)C(=O)NC[C@@H](OC(=O)[C@@H](CC=C)Cc1ccc(F)cc1)c1ccccc1`, the relative growth was inactive: 1.04.

With `CN(C)CC(=O)N[C@H]1CC[C@@H](CCNC(=O)C2CC2)O[C@H]1CO`, the relative growth is inactive: 0.984.

For `C[C@@H]1CCCCO[C@@H](CN(C)C(=O)Nc2ccc3c(c2)OCO3)[C@H](C)CN([C@@H](C)CO)C(=O)c2cc(NC(=O)c3ccncc3)ccc2O1`, the relative growth was inactive: 1.02.

On to `COc1ccc(S(=O)(=O)Nc2cccc3c2O[C@@H](CN(C)S(=O)(=O)c2ccccc2)[C@H](C)CN([C@@H](C)CO)C3=O)cc1`, for which the relative growth was inactive: 1.01.

With `Cc1ccc(S(=O)(=O)Nc2ccc3c(c2)C(=O)N([C@H](C)CO)C[C@H](C)[C@H](CN(C)C(=O)NC2CCCCC2)OCCCC[C@@H](C)O3)cc1`, the relative growth is inactive: 0.991.

`CC(C)N1C(=O)[C@@]2(Cc3ccccc31)c1ccccc1C(=O)N(Cc1ccccc1Cl)[C@H]2c1ccc(CO)cc1`: the relative growth was inactive: 0.94.

For the compound `COc1cccc(NC(=O)N(C)C[C@H]2Oc3cc(C#CC4(O)CCCC4)ccc3S(=O)(=O)N([C@@H](C)CO)C[C@@H]2C)c1`, the relative growth is inactive: 1.01.

For `Cc1cc(C)cc(C(=O)N(C)[C@H](Cc2ccc(-c3ccccc3)cc2)C(=O)N[C@@H](Cc2c[nH]c3ccccc23)C(=O)O)c1`, the relative growth was inactive: 0.909.

Turning to `C[C@H]1CN([C@@H](C)CO)C(=O)Cc2cc(NC(=O)Cn3cnnn3)ccc2O[C@@H]1CN(C)C(=O)Nc1ccc(C(F)(F)F)cc1`, the relative growth was inactive: 0.983.

Consider `C[C@@H]1CN([C@@H](C)CO)S(=O)(=O)c2ccc(Br)cc2O[C@H]1CN(C)C(=O)c1ccc2c(c1)OCO2`, for which the relative growth is inactive: 1.01.

`C[C@@H]1CN([C@H](C)CO)C(=O)Cc2cc(NS(=O)(=O)c3ccc(F)cc3)ccc2O[C@@H]1CN(C)C(=O)Nc1cccc2ccccc12`: the relative growth was inactive: 1.03.

Turning to `C[C@@H]1CCCCO[C@H](CN(C)Cc2ccccc2)[C@@H](C)CN([C@H](C)CO)C(=O)c2cc(NC(=O)C3CCCCC3)ccc2O1`, the relative growth was inactive: 0.995.

Take `C[C@H](CO)N1C[C@H](C)[C@@H](CN(C)S(=O)(=O)c2ccc(F)cc2)Oc2c(NS(=O)(=O)c3cccs3)cccc2C1=O`: the relative growth was inactive: 0.974.

Consider `C[C@@H]1CN([C@@H](C)CO)C(=O)c2cccc(NS(C)(=O)=O)c2O[C@@H]1CN(C)Cc1ccc2c(c1)OCO2`, for which the relative growth was inactive: 1.01.

With `C[C@@H]1CN([C@H](C)CO)C(=O)CCCn2nncc2CO[C@H]1CN(C)S(=O)(=O)c1ccc(Oc2ccccc2)cc1`, the relative growth is inactive: 1.01.

Regarding `CO[C@H]1CN(C)C(=O)c2cc(NC(=O)Nc3cccc(F)c3)ccc2OC[C@H](C)N(C(=O)Nc2c(C)noc2C)C[C@H]1C`, the relative growth is inactive: 0.98.

Take `CN(C)Cc1cn(CC[C@H]2CC[C@H](NS(=O)(=O)c3ccccc3)[C@H](CO)O2)nn1`: the relative growth was inactive: 0.996.

Take `C[C@@H]1CCCCO[C@H](CN(C)S(=O)(=O)c2ccccc2)[C@@H](C)CN([C@@H](C)CO)C(=O)c2cc(NC(=O)c3ccccc3)ccc2O1`: the relative growth was inactive: 1.03.

In the case of `C[C@@H]1CCCCO[C@@H](CN(C)C(=O)NC2CCCCC2)[C@@H](C)CN([C@@H](C)CO)C(=O)c2cc(NC(=O)CCC(F)(F)F)ccc2O1`, the relative growth was inactive: 0.989.

As for `C[C@H](CO)N1C[C@H](C)[C@@H](CN(C)Cc2ccccc2)OCCCC[C@H](C)Oc2ccc(NC(=O)c3ccncc3)cc2C1=O`, the relative growth was inactive: 0.995.

Consider `C[C@@H]1CN([C@H](C)CO)C(=O)Cc2cc(NC(=O)C3CCCCC3)ccc2O[C@@H]1CN(C)Cc1ccc(-c2ccccc2)cc1`, for which the relative growth is inactive: 1.
